# Reference: PubChem BioAssay AID1461 (National Center for Advancing Translational Sciences (NCATS), 2008)
# “And” between values parts separate entries of the source, which are not always exact repeats. Equal entries are not always repeated. The campaign covered roughly 220,000 compounds. About 2,300 (1%) were called active. The shares of active, inactive and inconclusive entries below differ from those in the screen. Calls come from the whole dose curve; as a rule, active = well fitted inhibition curve with a large enough effect; inconclusive = small, poorly fitted or top-dose-only effect, or effect the other way; inactive = no such curve, though single readings can be large or run the other way. A potency beside an inconclusive call is a rough fit, not a confirmed value.
# Molecular target: Neuropeptide S receptor (Homo sapiens) (UniProt Q6W5P4)
# Chain of UniProt Q6W5P4 (Q6W5P4 whole entry, looked up): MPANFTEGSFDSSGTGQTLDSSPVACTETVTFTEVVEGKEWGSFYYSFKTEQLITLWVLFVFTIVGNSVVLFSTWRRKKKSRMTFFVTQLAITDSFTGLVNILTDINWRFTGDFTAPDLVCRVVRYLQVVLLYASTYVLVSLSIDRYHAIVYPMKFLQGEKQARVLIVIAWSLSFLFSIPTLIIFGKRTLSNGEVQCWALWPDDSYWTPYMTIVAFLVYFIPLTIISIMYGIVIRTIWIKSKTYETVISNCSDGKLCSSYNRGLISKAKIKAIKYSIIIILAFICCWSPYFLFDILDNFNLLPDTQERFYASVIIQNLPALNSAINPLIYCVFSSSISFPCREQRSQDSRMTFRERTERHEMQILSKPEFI
# Experiment: qHTS Assay for Antagonists of the Neuropeptide S Receptor: cAMP Signal Transduction; note: nearly all actives have a fitted effect of over 50% in size
# Conditions: CHO-NPSR cells, cAMP TR-FRET, antagonist mode; activity change, negative = inhibition: at 38.3 µM (top of the series) unless noted
# % is set by controls: 0 for no effect and ±100 for the full control effect; potency is the fitted concentration of half-maximal effect; tags give direction and shape of the fitted curve.
SMILES,Potency,"activity change, negative = inhibition"
CC1(C)OC(=O)C(=Cc2ccc(-c3ccc(S(N)(=O)=O)cc3)o2)C(=O)O1,"inconclusive: 12.6 µM [inhibitor, single point]",–
COc1ccccc1-c1noc(CCC(=O)Nc2ccccc2Cl)n1,–,inactive: -7.27% [at 46.1 µM]
CC(C)(C)c1ccc(-c2n[nH]c(=S)n2/N=C/c2ccncc2)cc1,–,inactive: -56.7%
Cc1nn(-c2ccccc2)c2sc(C(=O)NC3CCCCC3)cc12,"inconclusive: 12.6 µM [inhibitor, partial curve]",–
Cc1ccc(N=C2SCCCN2C(=O)c2ccco2)cc1Cl,"inconclusive: 3.16 µM [inhibitor, single point]",–
Cc1ccc(NC(=O)N2CCC(NC(=O)C(C)(C)C)CC2)cc1,"inconclusive: 5.01 µM [inhibitor, single point]",–
N#Cc1nc(COc2ccc(Cl)cc2)oc1N1CCCCCC1,"inconclusive: 10 µM [inhibitor, single point]",–
Cc1cc(C(=O)COC(=O)c2cccnc2Cl)c(C)n1CC1CCCO1 (stereo not given),–,inactive: 1.86%
CNC(=S)N(CCc1c(C)[nH]c2ccc(Cl)cc12)Cc1cccs1,–,inactive: -52.1%
CCOC(=O)N1CCC(N(CCN(C)C)C(=S)Nc2cc(Cl)cc(Cl)c2)CC1,"inconclusive: 10 µM [inhibitor, single point]",–
Cc1ccc(OCC(=O)N/N=C/c2ccco2)cc1,–,inactive: 6.38% [at 46.1 µM]
Cc1nn(C)cc1CN(C)C(=O)c1nn2c(c1Cl)NC(c1cccs1)CC2C(F)(F)F (stereo not given),–,inactive: -14.9% [at 46.1 µM]
COc1ccc(S(=O)(=O)C(C#N)c2nc3ccccc3nc2N2CCC(C)CC2)cc1 (stereo not given),–,inactive: -2.25% [at 46.1 µM]
CC(C)Oc1ccc(CCc2n[nH]c(=S)n2Cc2ccccc2)cc1,"inconclusive: 12.6 µM [inhibitor, partial curve]",–
CCOC(=O)c1c(C)[nH]c(C)c1C(=O)COC(=O)c1cc2ccccc2cc1O,"inconclusive: 10 µM [inhibitor, partial curve]",–
NCCCCNS(=O)(=O)c1cccc2c(Cl)cccc12,"inconclusive: 15.8 µM [activator, partial curve]",–
COc1ccc(-c2nc3ccccc3nc2-c2ccccc2)cc1,"inconclusive: 10 µM [activator, single point]",–
Nc1ncnc2c1c(-c1ccc(Oc3ccccc3)cc1)cn2C1CCCC1,"inconclusive: 12.6 µM [inhibitor, single point]",–
Cc1cc(N2CCN(C)CC2)nc(N2CCOCC2)n1,"inconclusive: 25.1 µM [inhibitor, single point]",–
COc1ccc(C)cc1S(=O)(=O)N(CC(=O)Nc1ccc2c(c1)OCCO2)Cc1ccccc1,"inconclusive: 10 µM [inhibitor, single point]",–
C=CC1(C)CC(=O)C2(O)C(C)(O1)C(OC(C)=O)C(O)C1C(C)(C)CCC(O)C12C (stereo not given),"inconclusive: 0.794 µM [activator, full curve]",–
CN(C)c1ccc(/C=N/NC(=O)c2ccccc2O)o1,–,inactive: -8.99%
CC(=O)c1c(C)[nH]c(C(=O)OCC(=O)Nc2cc(Cl)ccc2[N+](=O)[O-])c1C,"inconclusive: 10 µM [inhibitor, single point]",–
O=C(Nc1cccc(-c2nc3ccccc3s2)c1)c1ccc2c(c1)OCO2,"inconclusive: 25.1 µM [inhibitor, single point]",–

SMILES,Potency,"activity change, negative = inhibition"
COc1ccc(-c2nn(CCC(=O)O)cc2/C=C2\SC(N)=NC2=O)cc1,–,inactive: 8.94%
O=C(Nc1ccncc1)C1(c2ccccc2)CCCC1,"inconclusive: 12.6 µM [inhibitor, single point]",–
Cc1cccc(-n2c(N)cc(=O)nc2SCC(=O)Nc2ccccc2)c1,–,inactive: -8.03% [at 46.1 µM]
COc1ccc(C(=O)/C(=C/c2cccs2)c2nc3ccccc3o2)cc1,"inconclusive: 10 µM [inhibitor, single point]",–
COc1ccc(Sc2nnc(Cc3ccccc3)c3ccccc23)cc1,"inconclusive: 10 µM [inhibitor, single point]",–
Cc1ccc(NC(=S)NNC(=O)c2c([N+](=O)[O-])c(C)nn2C)cc1,–,inactive: -6.81% [at 46.1 µM]
CCCCOc1cccc(/C=N/NC(=O)c2csc(C)c2C)c1,"inconclusive: 10 µM [inhibitor, partial curve]",–
O=C(COc1ccc(Cl)cc1)Nc1ccccc1C(=O)NCc1ccco1,–,inactive: 1.52% [at 46.1 µM]
O=[N+]([O-])c1ccc(N2CCCCC2)nc1,"inconclusive: 25.1 µM [inhibitor, single point]",–
COc1ccc(CN2C=C3C(=O)C(C)(OC(=O)C4CCCC4)C(=O)C=C3C=C2c2ccsc2)cc1 (stereo not given),–,inactive: -22.1%
Cc1[nH]c2ccc(F)cc2c1CCN(Cc1cccnc1)C(=S)Nc1ccccc1,–,inactive: -57.8%
CCC(c1nnnn1CCc1ccccc1)N(Cc1ccco1)Cc1cc2cc(C)cc(C)c2[nH]c1=O (stereo not given),"inconclusive: 6.31 µM [inhibitor, partial curve]",–
O=C(NCC1CCCO1)C(=O)N/N=C/c1cc(Cl)ccc1O (stereo not given),–,inactive: 2.4%
COc1cc(CNc2nc(C)c([N+](=O)[O-])c(C)c2C#N)cc(OC)c1,–,inactive: -6.44% [at 46.1 µM]
C/C(=N\Nc1nc2ccccc2s1)c1ccc(Br)s1,"inconclusive: 25.1 µM [activator, single point]",–
COc1cccc(C(=O)NN2c3ccccc3CCc3ccccc32)c1,–,inactive: -5.02%
CCN(CC)c1ccc(SS(=O)(=O)O)cc1,inactive,–
Cc1cc(C(=O)COC(=O)Cc2n[nH]c(=O)c3ccccc23)c(C)n1-c1cccc(C(F)(F)F)c1,"inconclusive: 10 µM [inhibitor, single point]",–
CN1C(=O)N(C)C2(c3ccccc3)Nn3c(s/c(=C/c4ccco4)c3=O)=NC12c1ccccc1 (stereo not given),"inconclusive: 15.8 µM [inhibitor, single point]",–
CCOC(=O)c1cnn(-c2ccccc2)c1NC(=O)c1ccccc1C,–,inactive: -21.8% [at 46.1 µM]
CCCNC(=S)N1CCN(c2nc(C)nc3sc4c(c23)CCCC4)CC1,"inconclusive: 15.8 µM [activator, partial curve]",–
CN1CCN(CCCN2c3ccccc3Sc3ccc(Cl)cc32)CC1,"inconclusive: 25.1 µM [inhibitor, single point] and inconclusive: 15.8 µM [inhibitor, partial curve]",–
CC(=O)c1ccc(NC(=O)/C(=C\c2ccccc2)NC(=O)/C=C/c2ccccc2)cc1,"inconclusive: 3.16 µM [inhibitor, single point]",–
CC1(C)SC(=S)N(Cc2ccc3c(c2)OCO3)C1N(O)C(=O)NC1CCCCC1 (stereo not given),"inconclusive: 12.6 µM [inhibitor, partial curve]",–

SMILES,Potency,"activity change, negative = inhibition"
CCCC(=O)O[C@H]1C[C@@H](C)N(C(=O)c2ccccc2)c2ccc(C)cc21,"inconclusive: 3.98 µM [inhibitor, partial curve]",–
CCC(Sc1ccc2nnc(-c3cccnc3)n2n1)C(=O)O (stereo not given),"inconclusive: 20 µM [activator, single point]",–
O=C(c1ccc(S(=O)(=O)c2ccccc2)cc1)N1CCc2ccccc2C1,–,inactive: -7.04%
COCC(C)n1c(SCc2ccc(C(=O)OC)o2)nc2ccccc2c1=O (stereo not given),"inconclusive: 12.6 µM [inhibitor, single point]",–
COc1ccc(NS(=O)(=O)c2ccc3nc(COc4ccc5ccccc5c4)[nH]c3c2)cc1,"inconclusive: 25.1 µM [inhibitor, partial curve]",–
Cc1cc(C)n(-c2nnc(C)n2/N=C/c2cc(Br)ccc2OCc2ccccc2)n1,"inconclusive: 12.6 µM [inhibitor, partial curve]",–
COc1ccc(C(=O)Nc2cccc(/C=C/c3nc4ccccc4c(=O)[nH]3)c2)cc1,"inconclusive: 10 µM [inhibitor, single point]",–
Cc1ccc2c(c1)c(C)c(C)n2CC(O)CN1CCCCC1C (stereo not given),"inconclusive: 12.6 µM [inhibitor, single point]",–
CC(C)CC(=O)OC1C(N2CCOCC2)c2c(ccc(/C=C/C(=O)N3CCOCC3)c2O)OC1(C)C (stereo not given),"inconclusive: 10 µM [inhibitor, single point]",–
c1ccc(CNc2nc(NCc3ccccc3)c3ccccc3n2)cc1,"inconclusive: 25.1 µM [activator, single point]",–
CCOC(=O)c1c(N)sc(C(=O)Nc2ccc3c(c2)OCO3)c1C,"inconclusive: 2.51 µM [inhibitor, full curve]",–
CCOC(=O)c1cc(NC(=O)c2ccccc2)c(=O)oc1C(F)(F)F,–,inactive: 6.12%
N/C(Cc1ccc(Cl)cc1)=N\OC(=O)c1ccc2ccccc2c1,–,inactive: -5.69% [at 46.1 µM]
Cc1cc(C)cc(OCC(=O)Nc2cccc(-c3nc4ncccc4o3)c2)c1,"inconclusive: 20 µM [inhibitor, single point]",–
N#Cc1c(NC(=O)/C=C/c2ccco2)sc2c1CCCC2,–,inactive: 6.29%
COc1ccc(Cn2nnnc2CN(Cc2cc3cccc(C)c3[nH]c2=O)C2CCCC2)cc1,–,inactive: -17.6% [at 46.1 µM]
Cc1ccc(N=C2NC(=O)/C(=C/c3cccnc3)S2)c(C)c1,"inconclusive: 12.6 µM [inhibitor, single point]",–
Cc1ccc(-c2cc(-c3ccc(Cl)cc3)c(C#N)c(N)n2)o1,–,inactive: -19.3% [at 46.1 µM]
Cc1nc2c(sc3nc4c(cc32)COC(C)(C)C4)c(=O)n1Cc1ccccc1,"inconclusive: 20 µM [inhibitor, single point]",–
O=C(c1ccccc1)N1CCC(c2nc(-c3ccc(S(=O)(=O)N4CCOCC4)cc3)no2)CC1,"inconclusive: 12.6 µM [inhibitor, partial curve]",–
Cc1c(C)c2c(c(C)c1O)CCC(C)(CN1CCN(c3cc(N4CCCC4)nc(N4CCCC4)n3)CC1)O2 (stereo not given),"inconclusive: 25.1 µM [inhibitor, single point]",–
O=C(Nc1nnc(C2CC2)s1)c1cc(-c2ccccc2)nn1-c1ccccc1,"inconclusive: 10 µM [inhibitor, partial curve]",–
